Lines with a small IC50 respond at low doses; a limit (>, <) means that the fit lies beyond the doses tested. The AUC spans the tested range (256-fold, ending at the top dose) of the same fit; values near 1 show little effect. For some of these results: Where the top dose is marked as inferred, it is not printed in the source and was worked back from the curve model. For some of these results: Where an entry number is given, a second screen of the drug exists; the two often differ.
Experiments:
Assay in all cases: Viability of human cancer cell lines after 72 h of drug (GDSC screen)
[1] = compound: Cc1ccc(Nc2cc(-c3cccc(N4C(=O)c5ccccc5C4=O)c3)ncn2)cc1NS(C)(=O)=O [KIN001-270]; conditions: top dose 20 µM; top dose inferred
Method: (§1)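 Human cancer cell lines in 384-well plates, medium with 10% serum, drug for 72 h over a 256-fold dose range (nine 2-fold or five 4-fold steps up to the top dose). Adherent lines were fixed and stained with the nucleic acid dye Syto60, suspension lines read with resazurin; signal relative to control wells, capped at 0 and 100%. One two-parameter sigmoid per drug and line, fitted in a mixed model over all curves with the slope shared within a line.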

[2] = compound: O=S(=O)(c1ccccc1)N(CC(F)(F)F)c1ccc(C(O)(C(F)(F)F)C(F)(F)F)cc1 [T0901317]; conditions: top dose 10.24 µM; top dose inferred
Method: as §1

[3] = compound: CC(C)c1ccccc1Cc1cc(C(=O)Nc2ccc(S(=O)(=O)c3ccccc3C(C)(C)C)cc2)c(O)c(O)c1O [TW-37]; conditions: top dose 5 µM
Method: as §1

[4] = compound: CCNC(=O)c1noc(-c2cc(C(C)C)c(O)cc2O)c1-c1ccc(CN2CCOCC2)cc1 [AUY922]; conditions: top dose 0.256 µM; top dose inferred
Method: as §1

[5] = compound: S=C(NCc1ccc2c(c1)OCO2)N1CCN(c2ncnc3c2oc2ccccc23)CC1 [MP470]; conditions: top dose 20 µM; top dose inferred
Method: as §1

[6] = compound: CC(O)(CS(=O)(=O)c1ccc(F)cc1)C(=O)Nc1ccc(C#N)c(C(F)(F)F)c1 [Bicalutamide]; conditions: top dose inferred
Method: as §1

[7] = compound: C/C(O)=C(\C#N)C(=O)Nc1cc(Br)ccc1Br [LFM-A13]; conditions: top dose 16 µM; top dose inferred
Method: as §1

[8] = compound: Nc1ccn([C@@H]2O[C@H](CO)[C@@H](O)C2(F)F)c(=O)n1 [Gemcitabine]; conditions: top dose 1.024 µM
Method: as §1

[9] = top dose 1.024 µM, screen: GDSC drug entry 150
[10] = top dose 10 µM, screen: GDSC drug entry 1502

Row | Cell Line | AUC [1] | IC50 [1] [nM] | AUC [2] | IC50 [2] [nM] | AUC [3] | IC50 [3] [nM] | AUC [4] | IC50 [4] [nM] | AUC [5] | IC50 [5] [nM] | AUC [6, 9] | IC50 [6, 9] [nM] | AUC [7] | IC50 [7] [nM] | AUC [8] | IC50 [8] [nM] | AUC [6, 10] | IC50 [6, 10] [nM]
1 | NCI-H1734 (lung adenocarcinoma, adherent) | 0.984 | > 20000 | 0.983 | > 10200 | 0.57 | 495 | 0.641 | 41.1 | 0.984 | > 20000 | 0.985 | > 1020 | 0.981 | > 16000 | 0.32 | 19 |  | 
2 | JHU-011 (head and neck, adherent) | 0.967 | > 20000 | 0.971 | > 10200 | 0.553 | 436 | 0.41 | 9.09 | 0.978 | > 20000 | 0.986 | > 1020 | 0.982 | > 16000 | 0.145 | 5.16 |  | 
3 | HPAC (pancreas, adherent) | 0.979 | > 20000 | 0.979 | > 10200 | 0.884 | > 5000 | 0.794 | 177 | 0.857 | > 20000 | 0.979 | > 1020 | 0.979 | > 16000 | 0.274 | 11 |  | 
4 | H3255 (lung adenocarcinoma, adherent) | 0.972 | > 20000 | 0.982 | > 10200 | 0.535 | 395 | 0.761 | 108 | 0.951 | > 20000 | 0.984 | > 1020 | 0.983 | > 16000 | 0.541 | 84.8 | 0.946 | > 10000
5 | ABC-1 (lung adenocarcinoma, adherent) | 0.953 | > 20000 | 0.981 | > 10200 | 0.535 | 398 | 0.596 | 31.1 | 0.783 | 10300 | 0.975 | > 1020 | 0.972 | > 16000 | 0.325 | 18.7 | 0.958 | > 10000
6 | CAMA-1 (breast, adherent) | 0.951 | > 20000 | 0.969 | > 10200 | 0.605 | 652 | 0.702 | 69.3 | 0.893 | > 20000 | 0.924 | > 1020 | 0.977 | > 16000 | 0.723 | 327 | 0.961 | > 10000
7 | PCI-6A (head and neck, adherent) | 0.988 | > 20000 | 0.978 | > 10200 | 0.59 | 547 | 0.669 | 46.8 | 0.953 | > 20000 | 0.988 | > 1020 | 0.985 | > 16000 | 0.204 | 8.72 | 0.974 | > 10000
8 | OAW-42 (ovary, adherent) | 0.985 | > 20000 | 0.951 | > 10200 | 0.565 | 479 | 0.62 | 35.3 | 0.814 | 12000 | 0.974 | > 1020 | 0.95 | > 16000 | 0.566 | 98.5 | 0.969 | > 10000
9 | NCI-H2228 (lung adenocarcinoma, adherent) | 0.976 | > 20000 | 0.931 | > 10200 |  |  | 0.478 | 13.5 | 0.973 | > 20000 | 0.941 | > 1020 | 0.909 | > 16000 | 0.121 | < 4 |  | 
10 | RMG-I (ovary, adherent) | 0.978 | > 20000 | 0.983 | > 10200 |  |  | 0.847 | 237 | 0.914 | > 20000 | 0.979 | > 1020 | 0.982 | > 16000 | 0.979 | > 1020 | 0.954 | > 10000
11 | BICR31 (head and neck, adherent) | 0.978 | > 20000 | 0.977 | > 10200 |  |  | 0.426 | 10 | 0.974 | > 20000 | 0.987 | > 1020 | 0.971 | > 16000 | 0.381 | 29.9 |  | 
12 | UACC-812 (breast, adherent) | 0.985 | > 20000 | 0.989 | > 10200 |  |  | 0.906 | > 256 | 0.98 | > 20000 | 0.991 | > 1020 | 0.988 | > 16000 | 0.969 | > 1020 |  | 
13 | SNU-398 (liver, adherent) | 0.921 | > 20000 | 0.925 | > 10200 |  |  | 0.49 | 15 | 0.928 | > 20000 | 0.981 | > 1020 | 0.985 | > 16000 | 0.89 | > 1020 | 0.975 | > 10000
14 | G-MEL (melanoma, adherent) | 0.983 | > 20000 | 0.96 | > 10200 |  |  | 0.909 | > 256 | 0.698 | 4460 | 0.973 | > 1020 | 0.952 | > 16000 | 0.839 | 686 | 0.985 | > 10000
15 | 769-P (kidney, adherent) | 0.968 | > 20000 | 0.928 | > 10200 |  |  | 0.456 | 12 | 0.909 | > 20000 | 0.981 | > 1020 | 0.972 | > 16000 | 0.079 | < 4 | 0.978 | > 10000
